# The other results are listed elsewhere or left out.
# Assays:
# Assay in all cases: glycan array binding signal (z-score within array); higher = stronger binding
# Conditions in all cases: glycan notation: IUPAC condensed, linker removed
# [1] = molecular target: Fuc(a1-2)Gal(b1-4)GlcNAc(b1-3)Gal(b1-4)GlcNAc(b1-3)Gal(b1-4)GlcNAc
# Summary of the method: (§1)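 The Consortium for Functional Glycomics database supplied 3228 glycan arrays, of which those lacking an available protein sequence were dropped. The binding signal, a within-array Z-score, was averaged across arrays of the same protein sequence and across linkers. Negative scores can be read as non-binding.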
# [2] = molecular target: Fuc(a1-2)Gal(b1-4)GlcNAc(b1-3)GalNAc
# Summary of the method: as §1
# [3] = molecular target: Fuc(a1-2)Gal(b1-4)GlcNAc(b1-3)[Fuc(a1-2)Gal(b1-4)GlcNAc(b1-6)]GalNAc
# Summary of the method: as §1
# [4] = molecular target: Fuc(a1-2)Gal(b1-4)GlcNAc(b1-3)[Fuc(a1-3)[Gal(b1-4)]GlcNAc(b1-6)]Gal(b1-4)Glc
# Summary of the method: as §1
# [5] = molecular target: Fuc(a1-2)Gal(b1-4)GlcNAc(b1-6)GalNAc
# Summary of the method: as §1
# [6] = molecular target: Fuc(a1-2)Gal(b1-4)GlcNAc6S
# Summary of the method: as §1
# [7] = molecular target: Fuc(a1-2)Gal(b1-4)[Fuc(a1-3)]GlcNAc
# Summary of the method: as §1
# [8] = molecular target: Fuc(a1-2)Gal(b1-4)[Fuc(a1-3)]GlcNAc(b1-2)Man(a1-3)[Fuc(a1-2)Gal(b1-4)[Fuc(a1-3)]GlcNAc(b1-2)Man(a1-6)]Man(b1-4)GlcNAc(b1-4)[Fuc(a1-6)]GlcNAc
# Summary of the method: as §1
# [9] = molecular target: Fuc(a1-2)Gal(b1-4)[Fuc(a1-3)]GlcNAc(b1-2)[Fuc(a1-2)Gal(b1-4)[Fuc(a1-3)]GlcNAc(b1-4)]Man(a1-3)[Fuc(a1-2)Gal(b1-4)[Fuc(a1-3)]GlcNAc(b1-2)Man(a1-6)]Man(b1-4)GlcNAc(b1-4)GlcNAc
# Summary of the method: as §1
# [10] = molecular target: Fuc(a1-2)Gal(b1-4)[Fuc(a1-3)]GlcNAc(b1-3)Gal(b1-4)[Fuc(a1-3)]GlcNAc
# Summary of the method: as §1
# [11] = molecular target: Fuc(a1-2)Gal(b1-4)[Fuc(a1-3)]GlcNAc(b1-3)Gal(b1-4)[Fuc(a1-3)]GlcNAc(b1-3)Gal(b1-4)[Fuc(a1-3)]GlcNAc
# Summary of the method: as §1
# [12] = molecular target: Fuc(a1-2)Gal(b1-4)[Fuc(a1-3)]GlcNAc(b1-3)GalNAc
# Summary of the method: as §1
# [13] = molecular target: Fuc(a1-2)Gal(b1-4)[Fuc(a1-3)]GlcNAc(b1-3)[Neu5Ac(a2-6)Gal(b1-4)GlcNAc(b1-6)]Gal(b1-4)Glc
# Summary of the method: as §1
# [14] = molecular target: Fuc(a1-2)Gal3S(b1-4)GlcNAc
# Summary of the method: as §1
# [15] = molecular target: Fuc(a1-2)Gal6S(b1-3)GlcNAc
# Summary of the method: as §1
# [16] = molecular target: Fuc(a1-2)Gal6S(b1-3)GlcNAc6S
# Summary of the method: as §1
# Fuc(a1-2)Gal6S(b1-4)Glc = molecular target: Fuc(a1-2)Gal6S(b1-4)Glc
# Summary of the method: as §1
# [17] = molecular target: Fuc(a1-2)Gal6S(b1-4)Glc6S
# Summary of the method: as §1
# Fuc(a1-2)[Gal(a1-3)]Gal = molecular target: Fuc(a1-2)[Gal(a1-3)]Gal
# Summary of the method: as §1
# [18] = molecular target: Fuc(a1-2)[Gal(a1-3)]Gal(b1-3)GalNAc
# Summary of the method: as §1
# [19] = molecular target: Fuc(a1-2)[Gal(a1-3)]Gal(b1-3)GalNAc(b1-3)Gal(a1-4)Gal(b1-4)Glc
# Summary of the method: as §1
# [20] = molecular target: Fuc(a1-2)[Gal(a1-3)]Gal(b1-3)GlcNAc
# Summary of the method: as §1
# [21] = molecular target: Fuc(a1-2)[Gal(a1-3)]Gal(b1-3)GlcNAc(b1-2)Man(a1-3)[Fuc(a1-2)[Gal(a1-3)]Gal(b1-3)GlcNAc(b1-2)Man(a1-6)]Man(b1-4)GlcNAc(b1-4)GlcNAc
# Summary of the method: as §1
# [22] = molecular target: Fuc(a1-2)[Gal(a1-3)]Gal(b1-3)GlcNAc(b1-2)Man(a1-3)[Fuc(a1-2)[Gal(a1-3)]Gal(b1-3)GlcNAc(b1-2)Man(a1-6)]Man(b1-4)GlcNAc(b1-4)[Fuc(a1-6)]GlcNAc
# Summary of the method: as §1
# [23] = molecular target: Fuc(a1-2)[Gal(a1-3)]Gal(b1-3)GlcNAc(b1-3)GalNAc
# Summary of the method: as §1
# [24] = molecular target: Fuc(a1-2)[Gal(a1-3)]Gal(b1-3)GlcNAc(b1-6)GalNAc
# Summary of the method: as §1
# [25] = molecular target: Fuc(a1-2)[Gal(a1-3)]Gal(b1-4)Glc
# Summary of the method: as §1
# [26] = molecular target: Fuc(a1-2)[Gal(a1-3)]Gal(b1-4)GlcNAc
# Summary of the method: as §1
# [27] = molecular target: Fuc(a1-2)[Gal(a1-3)]Gal(b1-4)GlcNAc(b1-2)Man
# Summary of the method: as §1
# [28] = molecular target: Fuc(a1-2)[Gal(a1-3)]Gal(b1-4)GlcNAc(b1-2)Man(a1-3)[Fuc(a1-2)[Gal(a1-3)]Gal(b1-4)GlcNAc(b1-2)Man(a1-6)]Man(b1-4)GlcNAc(b1-4)GlcNAc
# Summary of the method: as §1
binder,measurement,setting,value
Si Bti9 1b-V5-his (Solanum lycopersicum) (protein) MQCNRGCDLALASFYVWRGSNLTLISEMFSTSIADIVSYNNRDNIPNQDSVIAGTRINIPFRCDCLNDGEVLGHAFPYRVKSGDTYDLVARNYSDLTTAQWMMKFNSYPENNIPNTVNLSVVVNCSCGNSDVSKDFGLFVTYPVRAEDNLTSVASAANVSEDIIRRYNPAAVSILDIGQGIIYIPGRDRNGNFPPLPTSTDGLSGGAKKGGRADPAFLYKVVINSKLEGKPIPNPLLGLDSTRTGHHHHHH,glycan array binding signal (z-score),[1],-0.305
same,glycan array binding signal (z-score),[2],-0.217
same,glycan array binding signal (z-score),[3],-0.135
same,glycan array binding signal (z-score),[4],-0.378
same,glycan array binding signal (z-score),[5],-0.001
same,glycan array binding signal (z-score),[6],-0.305
same,glycan array binding signal (z-score),[7],-0.255
same,glycan array binding signal (z-score),[8],0.091
same,glycan array binding signal (z-score),[9],0.037
same,glycan array binding signal (z-score),[10],-0.363
same,glycan array binding signal (z-score),[11],0.047
same,glycan array binding signal (z-score),[12],-0.079
same,glycan array binding signal (z-score),[13],-0.28
same,glycan array binding signal (z-score),[14],-0.259
same,glycan array binding signal (z-score),[15],-0.245
same,glycan array binding signal (z-score),[16],-0.212
same,glycan array binding signal (z-score),Fuc(a1-2)Gal6S(b1-4)Glc,-0.136
same,glycan array binding signal (z-score),[17],-0.323
same,glycan array binding signal (z-score),Fuc(a1-2)[Gal(a1-3)]Gal,-0.187
same,glycan array binding signal (z-score),[18],-0.193
same,glycan array binding signal (z-score),[19],-0.264
same,glycan array binding signal (z-score),[20],1.15
same,glycan array binding signal (z-score),[21],0.087
same,glycan array binding signal (z-score),[22],-0.157
same,glycan array binding signal (z-score),[23],-0.161
same,glycan array binding signal (z-score),[24],-0.283
same,glycan array binding signal (z-score),[25],0.314
same,glycan array binding signal (z-score),[26],-0.371
same,glycan array binding signal (z-score),[27],0.112
same,glycan array binding signal (z-score),[28],-0.008

# From the supplement of paper PMC8728848
